# PubChem BioAssay AID488969 (Vanderbilt High Throughput Screening Facility, 2010)
# Over roughly 110,000 compounds, “z-score” has its median near -0.1; the highest 2% begin near 2. This is one part of the list.
# Molecular target: Metabotropic glutamate receptor 8 (Rattus norvegicus) (UniProt P70579)
# Assay: rat mGluR8 modulators via GIRK flux, primary screen, cell-based, thallium flux, HTS (AID 488969)
# Conditions: HEK293 rat mGluR8, GIRK (G protein-gated inwardly rectifying potassium channel) thallium flux, FluoZin2; at 10 µM; stronger effect = higher value
# Sequence of UniProt P70579 (P70579 whole entry, looked up): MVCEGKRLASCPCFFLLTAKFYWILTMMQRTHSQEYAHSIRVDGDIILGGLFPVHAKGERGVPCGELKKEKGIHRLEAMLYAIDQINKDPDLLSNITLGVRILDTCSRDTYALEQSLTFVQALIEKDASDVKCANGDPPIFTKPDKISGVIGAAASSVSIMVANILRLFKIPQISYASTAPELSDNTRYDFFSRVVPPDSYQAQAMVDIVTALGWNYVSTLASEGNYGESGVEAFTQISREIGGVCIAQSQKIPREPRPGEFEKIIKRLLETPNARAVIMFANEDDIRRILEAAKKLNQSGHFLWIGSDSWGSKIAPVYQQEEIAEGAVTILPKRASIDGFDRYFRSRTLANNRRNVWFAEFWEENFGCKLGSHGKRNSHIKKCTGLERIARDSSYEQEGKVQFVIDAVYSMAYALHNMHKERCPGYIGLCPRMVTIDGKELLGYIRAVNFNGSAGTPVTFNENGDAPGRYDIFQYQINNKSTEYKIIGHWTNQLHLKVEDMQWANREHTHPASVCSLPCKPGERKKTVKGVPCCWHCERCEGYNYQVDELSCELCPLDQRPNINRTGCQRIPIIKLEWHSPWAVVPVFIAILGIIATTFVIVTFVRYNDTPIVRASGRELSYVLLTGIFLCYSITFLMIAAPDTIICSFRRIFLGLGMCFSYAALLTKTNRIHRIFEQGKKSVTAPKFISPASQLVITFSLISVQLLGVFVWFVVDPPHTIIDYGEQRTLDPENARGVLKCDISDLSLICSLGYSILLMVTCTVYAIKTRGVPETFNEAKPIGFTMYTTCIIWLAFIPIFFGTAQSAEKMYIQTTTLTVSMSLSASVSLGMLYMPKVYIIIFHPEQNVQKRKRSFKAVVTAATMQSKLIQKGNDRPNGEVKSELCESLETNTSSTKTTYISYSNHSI
row,Compound,z-score
1,Nc1c(C(=O)NC2CCCC2)c2nc3ccccc3nc2n1CC1CCCO1 (centres undefined),-0.689
2,CC(C(=O)c1ccccc1)N1C(=O)c2ccccc2C1=O (centres undefined),0.0323
3,Cc1ccc(-n2c(O)c(/C=N/N3CCCCC3c3cccnc3)c(=O)[nH]c2=S)cc1 (centres undefined),0.0117
4,O=C1NC(=O)N(c2ccccc2F)C(=O)/C1=C/c1ccc(Sc2nc3ccccc3[nH]2)o1,-0.375
5,CCCCn1c(O)c(C(C)=NCc2ccc(F)cc2)c(=O)[nH]c1=O,-0.366
6,CCC1CCCCN1P(=O)(c1ccc(C)o1)C(C)(C)C (centres undefined),-0.25
7,O=C(c1ccncc1)C12CN3CN(CN(C3)C1)C2,0.492
8,CCC(=NCc1ccco1)c1c(O)n(-c2ccc(OC)cc2)c(=O)[nH]c1=O,0.129
9,N=C1c2ccccc2CN1NC(=O)C1CC1,0.217
10,CSc1ncc(/C=C2/C(=O)NC(=O)N(c3ccc(C(C)C)cc3)C2=O)cn1,-0.222
11,CCN(CC)CCN=C(C)c1c(O)n(-c2ccccc2OC)c(=O)[nH]c1=O,-0.111
12,COc1cccc(NC(=O)CN2CC(c3ccccc3)CC2=O)c1 (centres undefined),0.0992
13,CCCCC/C(=N\O)c1c[nH]c2ccccc12,-0.171
14,CC(C)NS(=O)(=O)c1ccc(OCC(=O)N2CCN(Cc3ccccc3)CC2)cc1,-0.0269
15,CCOC(=O)N(C)c1ccc(C(O)(C(=O)OC)C(F)(F)F)cc1 (centres undefined),0.24
16,CCOC(=O)C1SC2(C(F)F)CC1(O)c1c(c(OC)c3occc3c1OC)O2 (centres undefined),-2.67
17,CN1C(=O)C(Cc2c[nH]c3ccccc23)C(=O)N(C)C1=O,-1.06
18,CCOC(=O)c1c(/N=C/c2c(O)n(-c3ccc(F)cc3)c(=S)[nH]c2=O)sc2c1CCCC2,-0.1
19,O=C1NC(=O)N(CCNc2ncc(C(F)(F)F)cc2Cl)C(=O)C1/C=N/OCc1c(F)cccc1Cl (centres undefined),0.418
20,CC(C(N)=O)N1CC(c2ccccc2)CC1=O (centres undefined),-0.494
21,C=CCN1C(=O)NC(=O)/C(=C/c2cccn2C)C1=O,-0.314
22,CC(C)(C)C(=O)OCC12CCC(O1)C1(C)C(=O)OCC21 (centres undefined),-0.269
23,Cc1c(N=Nc2c(O)n(Cc3ccccc3)c(=O)[nH]c2=O)c(=O)n(-c2ccccc2)n1C,-0.116

row,Compound,z-score
1,COc1ccc(NP(=O)(Nc2ccc(OC)cc2)Oc2ccccc2)cc1,-0.382
2,Cc1ccc(C(=O)C2(C)N(O)C(C)C(c3cccs3)=[N+]2[O-])cc1 (centres undefined),0.0284
3,COc1cccc(-n2c(C)nc3ccccc3c2=O)c1,-0.233
4,Cc1cccc(N2C(=O)CC(=O)NC2=O)c1,-0.345
5,CCOC(=O)C1C2NC(=O)N(Cc3ccccc3)C1(C)Oc1c(OC)cccc12 (centres undefined),0.0221
6,Cc1ccc(-c2nc3ccc(Cl)cc3n2OC(=O)N(C)C)cc1,-0.974
7,CC12CCC3C(CCC4C/C(=N/O)CCC43C)C1CCC2O (centres undefined),0.644
8,C=CCn1c(O)c(C(C)=NCc2ccco2)c(=O)[nH]c1=O,-0.278
9,O=C(CN1CCCCC1)c1cccc(Br)c1,-0.0516
10,COc1ccc(C(=O)CN2CCOCC2)cc1F,-0.25
11,O=C(c1cc(-c2cccnc2)nc2ccc(Cl)cc12)N1CCC2(CC1)OCCO2,-0.431
12,Fc1ccc(C2=CCN(C(c3cccs3)c3nnnn3CCc3ccccc3)CC2)cc1 (centres undefined),-0.0814
13,Cn1c2ccccc2c2c(C(=O)N3CCC4(CC3)OCCO4)cn(C3CCCC3)c(=O)c21,-0.349
14,O=c1[nH]c(=O)n(Cc2ccco2)c(O)c1C=NCc1cccs1,-0.754
15,CC(=Nc1c(C)n(C)n(-c2ccccc2)c1=O)c1c(O)n(Cc2ccccc2)c(=O)[nH]c1=O,-0.729
16,COc1cccc(C2C([N+](=O)[O-])=C(N)Oc3c2c(=O)oc2ccccc32)c1 (centres undefined),-0.342
17,O=C1NC(=O)C2(C(=O)N1)C(c1ccc(F)cc1)NC(=S)NC2c1ccc(F)cc1 (centres undefined),-0.889
18,CCN(N=Nc1nonc1OC)c1nonc1OC,0.691
19,CCN(CC)CCNCC(=O)Nc1ccc(Cl)cc1C(=O)c1ccccc1,-0.352
20,CC(C)(C)c1ccc(CN2C(=O)CN=C(c3ccccc3)c3ccccc32)cc1,0.366
21,N#Cc1cc2c(nc1SCC(=O)Nc1cc(Cl)ccc1Cl)C1CCN2CC1,-1.88
22,CN(C)CCN=Cc1c(O)n(C2CCCCCC2)c(=O)[nH]c1=O,0.309
23,Fc1ccc(C(OCCN2CCCC2)c2ccc(Br)cc2)cc1 (centres undefined),0.477

row,Compound,z-score
1,O=[N+]([O-])NC1=NCN(Cc2ccco2)CN1Cc1ccco1,-0.0646
2,CC/C(=N\N1CCCCCC1)c1c(O)n(-c2ccccc2C)c(=O)[nH]c1=O,-0.69
3,NC(=O)c1ccc(N=Nc2c(O)[nH]c(=O)[nH]c2=O)cc1,-0.564
4,Fc1ccccc1CCNCc1cccc(Cl)c1Cl,-0.132
5,CCc1ccc(N2C(=O)NC(=O)C(CCc3ccncc3)(CCc3ccncc3)C2=O)cc1,-0.212
6,COP(=O)(OC)C(Nc1ccccn1)c1ccccc1 (centres undefined),-0.308
7,Cc1oc(-c2cccs2)nc1CSCC(=O)N1CCC2(CC1)OCCO2,0.655
8,CCOP(=O)(OCC)C(NC(=O)c1ccccc1Cl)=C(Cl)Cl,-0.202
9,CC(=O)C1=C(C)OC(N)=C(C(=O)OC(C)C)C12C(=O)Nc1ccccc12 (centres undefined),-0.361
10,CC(C)COP(=O)(OCC(C)C)C(O)c1cccnc1 (centres undefined),0.0509
11,COc1ccc(N2CCN(CCCN)CC2)cc1,0.403
12,CCOc1ccc(N2C(=O)NC(=O)/C(=C\c3ccc(N4CCCCC4)o3)C2=O)cc1,-0.492
13,OC(c1ccc(F)cc1)(c1ccc(F)cc1)[C@@H]1CCCN1,0.177
14,C=CCn1c(O)c(C(C)=Nc2ccc(N(C)C)cc2)c(=O)[nH]c1=O,-1.2
15,C[N+]12CN3CN(CN(C3)C1)C2,-1.16
16,O=C(CSC1c2ccccc2-c2ccccc21)N/N=C/c1ccccc1,0.0284
17,O=C(O)c1c[nH]c2ccc(S(=O)(=O)N(CCCl)CCCl)cc12,0.564
18,CC(=NCCN1CCCCC1)c1c(O)n(Cc2ccccc2)c(=O)[nH]c1=O,-0.14
19,C=Cn1c(P(=S)(N2CCOCC2)N2CCOCC2)cc2c1CCCC2,-0.597
20,Clc1cccc(N2CCNCC2)c1Cl,0.654
21,CCCc1nc2ccc(Br)cc2c(=O)n1-c1ccc([N+](=O)[O-])c(C(F)(F)F)c1,-0.653
22,O=C(N/N=C/c1c(O)n(CCC2=CCCCC2)c(=S)[nH]c1=O)c1ccccc1,-0.132
23,CCN(CCNc1ccc([N+](=O)[O-])c2cccnc12)S(=O)(=O)c1ccccc1,-0.00677
